#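 In this assay, cells in 96-well plates receive the compound at five concentrations for 48 hours. Endpoints are linearly interpolated between the surrounding concentrations. GI50 = concentration required for 50% inhibition of growth.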 Active and inactive are the calls of the source. Rule as the data show it: active = GI50 up to about 1.1 µM and inactive = higher.
# Test system: NCI-H322M
# Test: NCI tumour cell line growth inhibition, 48 h
row,Structure (SMILES),GI50
1,CCCCCCCCCCCCCCCCCC(=O)OCC(COC1OC(COP(=O)(O)O)C(O)C(O)C1O)OC(=O)CCCCCCCCCCCCCCCCC (stereo unspecified),inactive: 7.11 µM
2,C=C1CCCCCCCCCCC12SCCC2CCCCSC (stereo unspecified),inactive: 32.2 µM
3,Cc1cccc2c1[nH]c1[nH]c(=O)[nH]c(=O)c12,inactive: > 100 µM
4,N/C(=C\c1ccc(OCc2ccccc2)c(OCc2ccccc2)c1[N+](=O)[O-])C(=O)O,inactive: > 100 µM
5,C=C1C(=O)C23C(O)C1CCC2C12CO[C@]3(O)[C@@H](O)C1C(C)(C)CCC2O (stereo partly specified),inactive: 16.2 µM
6,CCOC(=O)C1OC(=O)CC1C1(C(=O)OCC)C=CC(=O)O1 (stereo unspecified),inactive: > 100 µM
7,Clc1ccc(OCc2nnc(CCCCCCCCc3nnc(COc4ccc(Cl)cc4Cl)n3Nc3ccccc3)n2Nc2ccccc2)c(Cl)c1,inactive: 25.5 µM
8,CN(Cc1cnc2nc(N)nc(N)c2n1)c1ccc(C(=O)NC23CC4CC(CC(C4)C2)C3)cc1,inactive: 13.1 µM
9,COc1nc(=O)n(C2CC(N=[N+]=[N-])C(CO)O2)cc1C (stereo unspecified),inactive: > 100 µM
10,COc1ccc(C#Cn2nnc3ccccc32)cc1,inactive: 46.9 µM
11,CC(CN(C)C)C(=O)c1ccccc1 (stereo unspecified),inactive: > 100 µM
12,CCC/N=C1\S/C(=C/c2ccc(OC)c(OC)c2)C(=O)N1c1ccccc1,inactive: 27.9 µM
13,CC1OC(n2cc(F)c(=O)[nH]c2=O)C=CC1O (stereo unspecified),inactive: > 100 µM
14,C=CC1(C)CCC(C(C)C(=O)C(C=C(C)C)OC(C)=O)C12C(=O)Oc1ccccc1C2=O (stereo unspecified),inactive: > 100 µM
15,Cc1n[nH]c(=O)n1/N=C/c1ccc(F)cc1,inactive: > 100 µM
16,CN(C)c1n/c(=N/c2ccc3c(c2)OCO3)ss1,inactive: 67 µM
17,CC(=O)OCC1OC(n2c(-c3ccccc3)c(C)c(C)c(C#N)c2=S)C(OC(C)=O)C(OC(C)=O)C1OC(C)=O (stereo unspecified),inactive: > 100 µM
18,O=C(O)CCC(NC(=O)c1ccc(Nc2nc3cc(C(F)(F)F)ccc3nc2-c2ccccc2)cc1)C(=O)O (stereo unspecified),inactive: > 94.2 µM
19,CC(/C=C/C(=O)c1sc(-n2nc(-c3ccccc3)cc2-c2ccccc2)nc1C)=C\c1ccccc1,inactive: 85.1 µM
20,c1ccc(/N=C2\SC(c3ccccc3)CN2C23CC4CC(CC(C4)C2)C3)cc1 (stereo unspecified),inactive: > 100 µM
21,COc1cccc(NC(=O)C(=O)C(C(C)=O)c2nc3ccc(Cl)cc3nc2O)c1 (stereo unspecified),inactive: > 100 µM
22,CN1C(=O)C(CC(=O)O)NC1=S (stereo unspecified),inactive: 40.8 µM
23,OCCNCCOc1ccc(/C(=C(/Cl)c2ccccc2)c2ccccc2)cc1,inactive: 12.4 µM

row,Structure (SMILES),GI50
1,Clc1cc(Cl)cc(C2ON=C(c3ccccc3)N2C23CC4CC(CC(C4)C2)C3)c1 (stereo unspecified),inactive: > 10 µM
2,CCOC(=O)[C@H]1Nc2ccc(Cl)cc2[C@H]2CCC[C@@H]12,inactive: > 100 µM
3,O=C1c2ccccc2N(O)C1(c1ccccc1)C1CCCC=C1N1CCOCC1 (stereo unspecified),inactive: > 100 µM
4,O=C(O)c1ccccc1CC1Cc2cc3c(cc2C1)CCC3,inactive: > 100 µM
5,O=c1c2ccccc2sc2cccc(NCCCN3CCN(CCCNc4cccc5sc6ccccc6c(=O)c45)CC3)c12,inactive: > 100 µM
6,CCOC(=O)Cc1cc(OC)c(OC)cc1/C(Cl)=C(\CO)c1ccc(OC)c(OC)c1,inactive: > 100 µM
7,COc1ccc(O)c(/C=N/NC(=S)N2CCCCC2)c1,inactive: 4.5 µM
8,O=S1(=O)NN=C(NCc2ccc(F)cc2)c2ccccc21,inactive: > 100 µM
9,C#CCNC(=O)NCCCCC(NC(=O)OCc1ccccc1)C(=O)OCc1ccccc1 (stereo unspecified),inactive: > 100 µM
10,OCn1nc2c(C3OCCO3)cc3ccccc3n2c1=S,inactive: > 100 µM
11,COc1cc(/C=C2\N=C(c3ccccc3)N(c3nc4ccc(Sc5ccccc5)cc4[nH]3)C2=O)cc(OC)c1OC,inactive: 38.1 µM
12,O.O=C([O-])c1ccccc1Nc1ccccc1C(=O)[O-].[Zn+2],inactive: 20.9 µM
13,CS(=O)(=O)OCCN(CCOS(C)(=O)=O)c1ccc(/C=N/c2ccc(-c3csc(Cc4ccccc4)n3)cc2)c(Cl)c1,inactive: 60 µM
14,CN1C(=S)C(c2ccccc2)Sc2ccccc21 (stereo unspecified),inactive: > 100 µM
15,Cc1cccc(C)c1NC(=O)CCCC(=O)C1CC(=O)CCC1=O (stereo unspecified),inactive: > 100 µM
16,O=C(c1ccccc1)N1CCC(CC2(c3cc4ccccc4[nH]3)OCCO2)CC1,inactive: 50.2 µM
17,Cc1cc(C)c2c(n1)S(=O)(=O)N(CCCN1CCN(c3cccc(C(F)(F)F)c3)CC1)C(C(=O)c1ccc(Cl)cc1)=C2O,inactive: 4.47 µM
18,C[C@@H]1C(=O)C[C@H]2C(C)(C)CCC[C@]2(C)[C@@]1(O)CCc1ccoc1,inactive: > 100 µM
19,CCOC(=O)C1C(=O)CC(O)(OCC)C(C(=O)OCC)C1c1ccc(OC)cc1 (stereo unspecified),inactive: > 100 µM
20,CSc1nc(NC2OCC(OC(C)=O)C(OC(C)=O)C2OC(C)=O)c2c(n1)OCC2=O (stereo unspecified),inactive: > 100 µM
21,COC(=O)C1CC2C=CC1N(C(=O)OCc1ccccc1)C2 (stereo unspecified),inactive: > 100 µM
22,CCOC(=O)Nc1ccc(S(=O)(=O)Nn2cnnc2)cc1,inactive: > 100 µM
23,Cc1cc(S(=O)(=O)/N=C(\NN)NNc2cccc(C(F)(F)F)n2)c(S)cc1Cl,inactive: 29.1 µM
